Measured values published in PubChem BioAssay AID624417 (National Center for Advancing Translational Sciences (NCATS), 2012).
About 6,400 (1.6%) of roughly 410,000 compounds were called active. Inconclusive results, whose numbers are uncertain, are shown with a selection of clear calls. Calls come from the whole dose curve; as a rule, active = well fitted inhibition curve with a large enough effect; inconclusive = small, poorly fitted or top-dose-only effect; inactive = no such curve, though single readings can be large or run the other way. Potencies of inconclusive entries are left out as doubtful fits.

target: Glucagon-like peptide 1 receptor (Homo sapiens) (UniProt P43220); test: qHTS of GLP-1 Receptor Inverse Agonists (Inhibition Mode); conditions: HEK293 GLP-1R CRE-luciferase, luminescence, 24 h, GLP-1R form is constitutively active; activity change, negative = inhibition: at 38.3 µM (top of the series) unless noted; note: nearly all actives have a fitted effect of over 55% in size
UniProt P43220, sequence (P43220 whole entry, looked up): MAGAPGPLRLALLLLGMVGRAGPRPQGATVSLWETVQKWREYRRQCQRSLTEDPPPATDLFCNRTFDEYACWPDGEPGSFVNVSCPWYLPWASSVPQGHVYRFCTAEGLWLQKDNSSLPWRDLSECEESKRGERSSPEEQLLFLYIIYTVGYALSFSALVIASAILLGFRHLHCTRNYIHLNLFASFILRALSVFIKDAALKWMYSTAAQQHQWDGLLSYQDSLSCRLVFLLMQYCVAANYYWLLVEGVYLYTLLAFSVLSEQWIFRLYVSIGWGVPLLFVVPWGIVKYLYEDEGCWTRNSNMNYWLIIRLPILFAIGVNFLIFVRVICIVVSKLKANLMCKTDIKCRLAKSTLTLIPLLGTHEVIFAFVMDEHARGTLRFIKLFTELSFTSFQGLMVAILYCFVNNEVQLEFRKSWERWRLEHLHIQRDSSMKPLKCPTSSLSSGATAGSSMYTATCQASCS
Outline: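 GLP-1R inverse agonism mode: basal reporter luminescence in engineered HEK293 cells measured after one day of compound exposure at 37 deg C, with a 12 min room-temperature detection step.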
% is set by controls: 0 for no effect and ±100 for the full control effect; potency is the fitted concentration of half-maximal effect; tags give direction and shape of the fitted curve.

| SMILES | Potency | activity change, negative = inhibition |
| --- | --- | --- |
| CCN(CC)CC(O)CN(c1ccccc1)S(=O)(=O)c1ccc2ccccc2c1 (centres undefined) | inconclusive [inhibitor, partial curve, poor fit] | – |
| C(#CCN1CCCC1)CC(c1ccccc1)c1ccccc1 | inconclusive [inhibitor, partial curve, poor fit] | – |
| Cc1ccc2nc(-c3ccc(NC(=O)C(C)Sc4nncs4)cc3)sc2c1 (centres undefined) | inconclusive [inhibitor, full curve] | – |
| CC(C)NC(=O)N(C)C[C@H]1Oc2c(NS(=O)(=O)c3cn(C)cn3)cccc2C(=O)N([C@H](C)CO)C[C@@H]1C | – | inactive: 13.9% |
| COc1ccc(NC(=O)C(Cc2ccccc2)n2cccc2)cc1 (centres undefined) | inconclusive [inhibitor, single point] | – |
| Cc1ccc(NC(=O)CCCCCN2C(=O)[C@@H]3Cc4ccccc4CN3C2=O)c(C)c1 | inconclusive [inhibitor, partial curve] | – |
| CN1CCN(c2ccc(NC(=O)c3cccc(S(=O)(=O)N4CCCC4)c3)cc2)CC1 | inconclusive [inhibitor, single point] | – |
| Cc1ccc(CN2CCN(/N=C/c3ccc(Cl)c([N+](=O)[O-])c3)CC2)cc1 | inconclusive [inhibitor, partial curve, poor fit] | – |
| COc1ccc(OCc2nnc(SC(C)C(=O)Nc3nccs3)n2-c2ccccc2)cc1 (centres undefined) | inconclusive [inhibitor, partial curve, poor fit] | – |
| CCOC(=O)C1=NNC2(c3ccc(Cl)cc3)C(=O)N(c3cc(C)cc(C)c3)C(=O)C12 (centres undefined) | inconclusive [inhibitor, partial curve, poor fit] | – |
| Cc1ccccc1Cn1c(-c2cccs2)nc2ccccc21 | inconclusive [inhibitor, single point] | – |
| COc1ccc(-c2noc(CN(C(=O)c3ccccc3Cl)C(C)C)n2)cc1 | inconclusive [inhibitor, single point] | – |
| CCC(C)N1CCC(Oc2ccc(C(=O)NCc3ccccn3)cc2)CC1 (centres undefined) | inconclusive [inhibitor, full curve, poor fit] | – |
| CCc1nc2ccc(C(=O)NCCc3c[nH]c4ccccc34)cn2c1N(C)CCCc1ccccc1 | inconclusive [inhibitor, single point] | – |
| CC(C)NC(=O)[C@]1(C)CCC[C@@]2(C)C3CC[C@@]4(C)C[C@]3(CCC21)CC4=O (some centres undefined) | – | inactive: -10.8% |
| CN(C)C(=O)c1cc(C(=O)c2ccc(F)cc2Cl)c[nH]1 | – | inactive: 14.8% |
| CCN(CC(=O)Nc1cc(Cl)cc(Cl)c1)CC(=O)NC1CCS(=O)(=O)C1 (centres undefined) | inconclusive [inhibitor, partial curve, poor fit] | – |
| Nc1nc(COc2ccc3ccccc3c2)cs1 | – | inactive: 4.49% |
| Cn1c(N)c(C(=O)COC(=O)c2cc(C3CC3)nc3ccccc23)c(=O)n(Cc2ccccc2)c1=O | inconclusive [inhibitor, single point] | – |
| Cc1ccn2c(Nc3ccccc3C)c(-c3ccncc3)nc2c1 | inconclusive [inhibitor, partial curve, poor fit] | – |

| SMILES | Potency | activity change, negative = inhibition |
| --- | --- | --- |
| Cc1cc(C)cc(N2C(=O)N(c3ccccc3C)C3CS(=O)(=O)CC32)c1 (centres undefined) | – | inactive: 4.31% |
| O=C(NNS(=O)(=O)c1ccc(Cl)cc1)NC1CCCCC1 | – | inactive: -20.6% |
| O=C(NCC1CCCN(Cc2cccc(F)c2)C1)c1cccc2ccccc12 (centres undefined) | inconclusive [inhibitor, single point] | – |
| O=C(Nc1ccccn1)C1CCN(S(=O)(=O)c2ccc3ccccc3c2)CC1 | inconclusive [inhibitor, single point] | – |
| O=C(NCc1ccccn1)C1CCCN(Cc2cnn(-c3ccccc3)c2-n2cccc2)C1 (centres undefined) | inconclusive [inhibitor, full curve] | – |
| Cc1cccc(NC(=O)CSc2nnc(CNC(=O)c3cccc(C)c3)n2-c2ccccc2)c1 | inconclusive [inhibitor, partial curve, poor fit] | – |
| CC(NC(=O)C(=O)N1CCOCC1)C(c1cccs1)N1CCN(c2ccc(F)cc2)CC1 (centres undefined) | inconclusive [inhibitor, single point] | – |
| COc1ccc(/C=N/NC(=O)c2[nH]c3ccc(Cl)cc3c2-c2ccccc2)c(C(=O)O)c1OC | inconclusive [inhibitor, partial curve, poor fit] | – |
| N#Cc1nc(COc2ccccc2)oc1N1CCCCC1 | inconclusive [inhibitor, single point] | – |
| CC(C)OP(=O)(OC(C)C)C1(O)C(=O)Nc2ccc(Br)cc21 (centres undefined) | – | inactive: 7.91% |
| CCCNC(=O)NC(=O)COC(=O)c1ccc(S(=O)(=O)N(C)c2ccccc2OC)cc1 | inconclusive [inhibitor, single point] | – |
| O=C(Cc1ccc(Cl)cc1)NCCS(=O)(=O)N1CCN(c2ccccc2F)CC1 | inconclusive [inhibitor, partial curve, poor fit] | – |
| S=c1sc2c(Cl)ncnc2n1-c1ccccc1 | inconclusive [inhibitor, single point] | – |
| CC1CC1C(=O)Nc1ccc(S(=O)(=O)N2CCCCC2)cc1 (centres undefined) | inconclusive [inhibitor, single point] | – |
| COC(=O)CCC(C)C1CCC2C3CCC4CC(O)CCC4(C)C3=CC(=O)C12C (centres undefined) | inconclusive [inhibitor, partial curve, poor fit] | – |
| COc1ccc(CNC(=O)CCS(=O)(=O)c2ccc3c(c2)NC(=O)CS3)cc1 | – | inactive: -9.71% |
| CCN(CC)CCN(C(=O)c1ccc2c(c1)CCCC2)c1nc2cc(OC)c(OC)cc2s1 | inconclusive [inhibitor, partial curve, poor fit] | – |
| O=C(CNc1cccc2ccccc12)N/N=C/C(Br)=C/c1ccccc1 | inconclusive [inhibitor, partial curve, poor fit] | – |
| COc1ccccc1CCNC(=O)Cn1ccc2cc(S(=O)(=O)N3CCCCC3)ccc21 | inconclusive [inhibitor, single point] | – |
